Experimental data published in paper PMC10726135.
This is one part of the list. At the low end of the ranking the order means little. Measured with an extract: partners may take part in the binding.

target: T1, HNF4alpha2 (COS-7 nuclear extract) (UniProt P41235); assay: protein-binding microarray; conditions: COS-7 nuclear extract on double-stranded Agilent 4x180k PBM; binding buffer, salt, pH and temperature not given; high values mean tight binding; double strand, one strand shown; sequences stand for … in …GCCTAGGGAGATTAGAGTATCGGTCGA
T1 sequence: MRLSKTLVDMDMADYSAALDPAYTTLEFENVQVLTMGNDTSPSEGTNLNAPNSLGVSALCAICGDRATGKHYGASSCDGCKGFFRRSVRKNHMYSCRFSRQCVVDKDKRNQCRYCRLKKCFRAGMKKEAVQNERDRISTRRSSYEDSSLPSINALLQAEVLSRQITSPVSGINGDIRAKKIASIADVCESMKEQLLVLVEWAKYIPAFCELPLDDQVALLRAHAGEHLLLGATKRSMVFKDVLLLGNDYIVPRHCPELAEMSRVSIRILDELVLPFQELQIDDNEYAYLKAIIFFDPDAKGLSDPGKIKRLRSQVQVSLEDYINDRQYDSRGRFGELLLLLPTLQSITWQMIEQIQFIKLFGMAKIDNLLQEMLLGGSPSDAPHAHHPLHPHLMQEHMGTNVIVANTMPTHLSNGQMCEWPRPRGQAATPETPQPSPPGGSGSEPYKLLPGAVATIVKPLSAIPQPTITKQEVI

Sequence	binding signal (log2 normalized intensity)
CCTGACCCCCAGTGGAATGTGCCCTTTGAC	4.95
ACAGCAACTGTAGTGCATAGTGGGTTTCGG	0.973
GTCCATGCTATTAAGCACTAGAAAGTCTTG	-0.97
GGTGGCTCCCCCAGGCGACTGGGCCAGGAG	-0.383
AAGCTAAATACCCTCTTTAGGGTAGCCTGG	0.376
ACCAGGGAAATTACCCTCTAATGGTATTCA	-0.623
AGGAATGCTATCTAGCATGACAAGAATACG	-1.16
TCAACTGTTGTGGACCACGTGGCTAGATTG	1
AGCCCTTATATCCACATGGGTCCAAAGTTC	8.54
ATGGCACAGAGGAGGGACGACTTACTTTTA	-1.1
GCCCGAGCTGTGCGGTAGGCATTGAGGCAG	-1.19
TCTCCGCTGGCCTGTCTCCTGGCCTATTGT	1.44
AGTGACGTGCAGAGGAGCAACTCATTCACT	-1.08
AGAGATGTCAGCCCAAGATAACCTCCCCTC	3.82
TAGAGTAACCATTCTTTCTGAGAAAAGCTG	-0.984
CACCCTTCTATCCCCTTATCTAAATGGAGT	1.74
TGAATAAACAAATAATGGCTTTTGCCCTCA	3.4
TTTCTGTTTGTCTTACTGTGTTGTCGTATT	2.64
TTTTTTTTTTTTTAACGGTCTGCCCTCTTG	3.2
AGGCCCCAACATTCCAGAGAAGCACATCCA	-1.03
ATCAAGGATTTTTTCTTGGACTTTGGTCAT	8.1
CTGGGGCCCCACTGGGGTGGAGATGCCGTC	-1.13
GAGCAGCTGGTGGAGGCGGTGCCATTCACA	-1.21
TCAGAAGTCCAACATTAGTATCACTGTGAA	1.29
CTGCTGTTGCACCTCTTATCAAGCGTGCAC	-0.441

Sequence	binding signal (log2 normalized intensity)
GGGCCGGGAAACGCCCTCGGCGCGCACCCA	-1.17
GCCTGTTTCCCTAGCTTATATCCCCTGCCT	2.53
AAGGTCAGGATCTCAGCCGCGCGGCTTCAG	-0.906
GTCGCAGAAAACACAGAGATCTGATCAAAG	-1.12
TTCAAGGAATGCAGCTCAGACTGCTTCTCT	-1.02
ACTTTGATAGGCACAATCAGCAAACACAGA	-1.19
GCTGCTGAAACATTCAACTGACACTTGTTT	0.226
GCCTTATACAACCTCTGTAATAACTGCAGT	0.323
GAATGTGGGAAGCTGGCACAGCAGATGCTG	-1.05
AGATAAACATGAAACAGTCACAGTTATCAG	-1.05
TTAAATAGCTCATTAAGCTTAGCGTTATCA	-0.66
ACACAATATTGACATTCCAGCCTCCAGCTA	-1.16
CCACCCCCTCTCCTCCCTCGGCCGGCCCGG	4.59
CTTTGATCATATGCATTTCCCTAGATCACT	-0.88
TTAATAGAAGAAAGCCCTTTTTGGAATGTG	0.655
TGATCTTTACCCTGGAATGCTGTTAGCACT	0.538
ATCTCATCCTGTGACCAAGAATGTCTAACC	1.17
ATAAGAAAGCAAAGTCCAACACAGAAGCCT	1.38
CTGCGCATACCATATGCATTCCTGCCTCAG	-1.09
GGATCCCATTCATGTGGGTCAACAGACAAA	0.575
GTAGAGGTGATTTCAGACTATTTTATTTTC	-1.1
AACTCTTTACACAGTTCTGATACATTGGAC	3.08
ATAACACAACCCCTACTGTACCCTATGCAC	3.03
AGACATCGACCTTTGTGGGCTTCAGACATT	1.71
CCTATGAGTCTGTAAAGTCAAAAACCAGTT	1.08

Sequence	binding signal (log2 normalized intensity)
GACTGCGCTCCCAGAAGCCTCCGGTGTACC	-1.09
GTGAGTAGGTTAGATAGGAATCTGGATGGC	0.0125
GAGAGTTGCACCCAGGCCGTTGGACCAAGC	-0.68
GCAGAAAGGGCATGGATTTAGATAAGAGGC	-0.975
ACTCCCTGACGCCATCTGGCGTCCCCCACC	4.27
GTCCCTGGATTGTGTTGCACTGTTTGCATA	0.832
AAAAGATGGAACAAGCCAGGTGTGCAGAGA	-0.804
TAGCTTTCCCACCAAACCTGAAAAACCTCT	-0.921
TAAAAATGCCTTTCATCTTTGAGAAAACTC	-0.684
CAGGAGTCGGGAGGTAGGGGTGGCGGGTTG	0.616
AGTTCCAATAGCAAAACCTGATGTTTGGAC	1.86
CTTGTCCTTGACCCTTCCTCCCATTTGCTG	2.29
AGAGGCCTTTGTGCTGACTAAGAGGAGAAG	-1.11
GGCTAAAGATAACCTAGAAAGGAGAGATCA	-1.11
TACCTTTCCTGCATTAACATCAACATGGAC	2.1
TTATCTTCCTCTGGCATCTGGTCAGGGGTC	3.51
TTCAATTATTTACTTTAGTTAGAGTCACTG	0.822
TTGGGCTGTGTTTTGCCCCTGCAGAGTTTT	2.3
GCTTCCAAGGGGAATGTGGATGCTGGAATG	0.986
AGAGGAAAGATGGGGATATAATCATTCATG	-1.16
GCATTCCACATTCTCCACTGGGAAGTAGAA	-0.872
CTTCTGAGATGGAGCATGATGAAATTTCCT	-1.19
CCATGCCACAGAATCGCCCCACCCTGCCTG	2.66
AATGGAGTTTGGTTTAAAGTTCAAGTCATA	2.62
AACTTCTTGGCCTGCATAGCACTTTCATAA	-1.05

Sequence	binding signal (log2 normalized intensity)
TACCTGCCTGAGCTATCTGTTTGAGGTTCA	1.54
TGTTTGAATTGTGATAATAAATGTGTTTCA	1.63
GACTTTGATCTTGCTGCTCTCGCCTGGAAG	-1.09
TTCATGTGTGGTGCAGATTCCACACTGGCT	-0.319
TGACTGGAGCAGAGCGATCAAAGGTCACAG	6.52
ATTTTCAGCCACCTTTATCTGATCAGAAAT	0.329
GTTAGTGCTGCCTCTTCTGGGAAGAGTAGA	-1.04
CCAGGTAACTTTTGTCTCTGGAGGGATCAG	0.327
TATCATCCACATATTTTCCCTATCTAGCCA	-1.16
CTTCTCTGGGAGAAAGGGAGGCAGGTGAGC	-1.07
CAAGAATGCAAAGCCCTGGCTGACCTTTAG	5.13
TGAGCCCAATCTAGCAAAAATCCTGCCAAA	-1.01
CAACAGGTGTTAAAATAACGACCTTTGGGC	5.79
TATCTGTCCATCCCTCACTCCTGTCTTACC	0.343
AGGTCACAGTAGGGAAAGTGGGGGGAAAGA	-0.786
TGACAACTGAATGTGACCTTTTGGACCACA	6.82
CACTGGCTCTGGGGTCAAAGTCCCCTGAGC	7.16
CTTTGCTCTCCCTCCTCTCTGAGCAGTCAA	-1.16
CTGCAACCTGAGTGCCAGAGCTGTGAAGAC	-1.2
AAGATGTACCATTCATGGACAGCCTTGCCA	-0.874
GGAGCACCACGGTTTATTTTTATCTGTTTA	1.34
ATAAAGGGTGAGTGCATGAATCAACTGTTG	0.225
TTGAAAGTTTGGTGGACTTTGGCCGTGAAG	6.79
CCCTGTCTCTCAGTCTCTGTGGGAGAGTAA	1.64
CCCATTTTATGGGCTAACGCTGCTGTCTGT	0.472

Sequence	binding signal (log2 normalized intensity)
GCCCTGGTCTCTGCTACCTGTAGCTGAGGG	-0.991
TTGCAAAGCAACTCCTCTGTACAGCTCTTG	-0.648
CCCAGAGCGGCAGCGCCTCCCGGTCACTAC	-1.08
TCTTTGCCCCATAACCACCATTAGACTCTG	2.49
CCTTAGGCGAATGTCAAAGGTCTTTGGTGG	2.44
TGAGCTGCTTTGGGTGGATTTGGAGATCAG	0.943
CAACACTTAGGGTGGATACTTTGACTGAGA	-0.657
GGCTCACAGAGAGGCTTCTGGCCAGGCAGA	-1.1
GTTATCTCTGCTGATAGCATAAAGCTAGGA	-1.13
AGAGGAAGATATTATCTCTGTCTGTCAAGG	1.2
GATCAAAGGTTGGTTTTTGGAGACAGGAGT	2.96
TAGCATGAACTACACAGATTCTGCAAACCT	-1.31
AGTATTTATTGAGCACTTTTGGTATGCAAG	0.973
AAGCAGAGGTGACCCTTGCACTCATACTTG	4.5
TTTGGGCTCATCCATTTTCCTCTGAAAATC	-1.05
TACCCAAGCCCCAAATCTAGCATCAGTGAG	0.61
CACATACAGAATCCTTTACCTCCACCTCCA	0.923
TATGCCTCTGTGACCTATAATCAGATGTAC	1.77
CAAGCTGGCTGGCTTTAGAGTTGTAGCTCT	-1.08
TTGCCCCCGGGCACAGGGTTGAGTGGTGAC	2.71
TCTGTAGTTTTCGTTGTCTAATCCTTCAAA	1.03
GAGGAAGACATCATATTTGTTATATTTGTT	1.43
GACCTTTCACCCGCGCCCAGCGGTTCCGGG	3.05
GGCACACACGCATGGCCGGCAGCAGCCTTG	-1.16
AGAAAGTGGCCGGACAGGTTGGGTCTGAAG	0.00742

Sequence	binding signal (log2 normalized intensity)
TAGATGTCCCAGTAGATAACTTCAAGGAGC	-0.484
GGCCTATAATTAGGTCTTTTGGTGAGTCTT	1.52
CAAACTGCTGAAGATAAGACTTCCTCAGAT	-1.06
AGTCCAGAGTCTGACAGAACTAAGCTGTTG	-1.13
GGTAATCACCCTCTCCACCCCCATGCAAGT	5.21
CGGACCAGAGCCTGCCCCCGGGGCCGCCTT	-1.15
GCCTCCTGCCCCAGGAGCAGGATAGAAGGA	-1.1
GTTTGCTTTTCCTTATCATCACATGTGCAA	1.44
AAAGGTGAGAGAGCATCCAGATAAAGCTGA	-1.12
TTCAGATATTCCTGGAATGACAAGAATTGG	0.202
AAATCAACAAATAAATAAGAAGCCTTATCA	-1.09
TGGCCAAAGTTCAGTAAATCTTAGAGAACA	1.8
TAAACCTGTTTGGTATCTACTCGGCAAAAC	0.0275
TTGTGAGTCCAAAGGTCAGCCGGGGAAGGT	6.71
CCTTGAGTTTGAACTTTGACTTATTTAGTA	4.99
CCTTGGATCTCCTGCACCTGAACTTTGCTC	6.35
AAGTGGAATGCGCTTTCATGAGATGAAAGC	-1.19
CAGCAGGGCACCGCCTCCACACCCCAGCCT	3.03
GGGCCAAAAGCAGCCATTAAGAAGCAAGTG	-0.613
CCCAGCCTATTAACCCCAAATTCCTCATGC	1.67
